In PubChem BioAssay (NCI):
“And” between values parts separate entries of the source, which are not always exact repeats. Identical values can stand only once.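 Interpolation was linear, between the two tested concentrations surrounding the appropriate level; five concentrations were tested over 48 hours in 96-well plates. Abbreviation: GI50, concentration required for 50% inhibition of growth. TGI: concentration producing complete growth inhibition.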

The compounds below were run on NCI-H322M lung (assay: DTP human tumour cell line panel, 48 h).

Going from `N#Cc1c(N)nc(N2CCSCC2)c(C#N)c1-c1ccc(O)cc1` to `O=C(O)Cn1c2c(c3c(O)cccc31)C(=O)c1ccccc1-2`, the GI50 rises from 21.1 µM to over 100 µM.

Compared with `COc1ccc(/C=C\c2cc(OC)c(OC)c(OC)c2)c(O)c1O`, `CCOC(=O)c1cc(-c2ccc(OC)c(OC)c2)[nH]c1N/N=C/c1c(Cl)cccc1Cl` is 20-fold higher in GI50: 0.231 µM for the first, 4.6 µM for the second.

Going from `COc1ccc(CNc2cnc3cc(N)cc(N)c3n2)cc1` to `CCc1nc2cc(/C=C/C(=O)NO)ccc2c(=O)n1CCc1ccc(F)cc1`, the GI50 falls from 48.8 µM to 2.4 µM (20-fold).

Going from `CC(C)(C)NC/C(=C\c1ccccc1)C(=O)c1ccccc1` to `NC(=Nc1nc(-c2ccccn2)cc2ccccc12)c1ccccn1`, the GI50 falls from 7.55 µM to 0.0356 µM (210-fold).

First: O=C(Nc1cccc(Cl)c1)c1cc(N=Nc2ccc([N+](=O)[O-])cc2Cl)ccc1O
Second: O=S(=O)(Nc1ccc2ccccc2c1)c1ccc(-c2cnc(C3CC3)o2)cc1
The GI50 of the first is 2.1-fold lower: 2.78 µM for the first, 5.81 µM for the second.

First: CCOc1c(C#N)c2c(N)ncnc2n1C1OC(CO)C(O)C1O (configuration not stated)
Second: COC(=O)c1ccc2c(c1)c1c(C)c3ccncc3c(C)c1n2C
The GI50 of the first is 7.5-fold higher: 3.95 µM for the first, 0.524 µM for the second.

Compared with `CC(C)CCC(=O)[C@@H](C)[C@H]1[C@@H](OC2OCC(O)C(O)C2NS(C)(=O)=O)C[C@H]2[C@@H]3CC=C4C[C@@H](O)CC[C@]4(C)[C@H]3CC[C@]12C` (some centres not stated), `CN1CCN(Cc2ccc(NC(=O)c3cncc(C#Cc4cnn5ccccc45)c3)cc2C(F)(F)F)CC1` is 3-fold lower in GI50: 4.22 µM for the first, 1.4 µM for the second.

`CCC[CH2][Sn]([CH2]CCC)([O]C(=O)c1cc(F)cc(F)c1)[O][Sn]([CH2]CCC)([CH2]CCC)[O]C(=O)c1cc(F)cc(F)c1` showed a GI50 of 2.24 µM.

`N#Cc1c(N)nc(N2CCSCC2)c(C#N)c1-c1ccc(O)cc1` and `Nc1nc(N)c(N=Nc2ccc(C(=O)O)c(O)c2)c(N)n1` cannot be ordered by TGI: over 100 µM for the first, over 100 µM for the second.

`CN(O)C(=S)c1ccccc1` and `OC1CCC[C@@H]1Sc1ccccc1` (some centres not stated) cannot be ordered by TGI: over 100 µM for the first, over 100 µM for the second.

`O=C(O)CC1CC=C[C@H]2c3cc4c(cc3C(=O)NC12)OCO4` (some centres not stated) and `O=C(O)Cn1c2c(c3c(O)cccc31)C(=O)c1ccccc1-2` cannot be ordered by TGI: over 75 µM for the first, over 100 µM for the second.

`CCCCN=C1OCc2[nH][nH]c(=O)c21` and `CC(CCCC1SCC2NC(=O)NC21)C(=O)O` (configuration not stated) cannot be ordered by TGI: over 100 µM for the first, over 100 µM for the second.

`CC(=O)Oc1c2oc3cc(O)c(O)cc3c2c(OC(C)=O)c2oc3cc(O)c(O)cc3c12` and `COc1cc2c(cc1OC)c1c(OC)c(OC)cc3c1c1c2sc(=S)n1CC3` cannot be ordered by TGI: over 100 µM for the first, over 100 µM for the second.

Going from `COc1ccc(Nc2nc3ccccc3nc2C(=O)O)cc1OC` to `CCOC(=O)c1cc(-c2ccc(OC)c(OC)c2)[nH]c1N/N=C/c1c(Cl)cccc1Cl`, the TGI falls from over 100 µM to 25.8 µM.

First: COc1ccc2c(-c3ccc(O)cc3)c(Oc3ccc(Cl)cc3)c(=O)oc2c1
Second: COc1ccc2c(c1)C(N)=C(Cc1ccncc1)C2=O
The TGI of the first is lower: 23.9 µM for the first, over 100 µM for the second.

`O=C(CN(c1ccc(S(=O)(=O)O)cc1)c1ccc(S(=O)(=O)O)cc1)Nn1cnc2ccc(S(=O)(=O)N(c3ccc(S(=O)(=O)O)cc3)c3ccc(S(=O)(=O)O)cc3)cc2c1=O` and `COC(=O)C(=O)C(C(=O)C(=O)Nc1ccc(C)cc1)c1nc2ccc(C(=O)c3ccccc3)cc2[nH]c1=O` (configuration not stated) cannot be ordered by TGI: over 100 µM for the first, over 100 µM for the second.

`COc1ncnc2c1cnn2Cc1cn(CCCCO)nn1` and `COc1ccc(-c2nc(-c3cnccn3)n(COCCO)n2)cc1` cannot be ordered by TGI: over 100 µM for the first, over 100 µM for the second.

Going from `O=C(/C=C/c1ccc(O)c(O)c1)NCCc1ccc(-c2ccccc2)cc1` to `CCc1nc2cc(/C=C/C(=O)NO)ccc2c(=O)n1CCc1ccc(F)cc1`, the TGI rises from 94.2 µM to over 100 µM.

Going from `CCN(CC)CC(C)(C)C(=O)/C=C/c1ccc(/C=C/C(=O)C(C)(C)CN(CC)CC)cc1` to `CC(O[Si](c1ccccc1)(c1ccccc1)C(C)(C)C)[C@H](NC(=O)OC(C)(C)C)C(=O)O` (some centres not stated), the TGI rises from 2.82 µM to over 100 µM.

`C/C(CCn1[nH]c(=O)ccc1=O)=N\Nc1ccc([N+](=O)[O-])cc1[N+](=O)[O-]` and `COC(=O)C(C(=O)C(=O)Nc1ccc(OC)cc1[N+](=O)[O-])c1nc2cc(C)c(C)cc2[nH]c1=O` (configuration not stated) cannot be ordered by TGI: over 100 µM for the first, over 100 µM for the second.

`CCOC(=O)N1[C@@H]2CCC[C@@H]2C(=O)[C@@H]2CCC[C@@H]21` and `C1CCN2CC3CCCN4CCCC(C2C1)C34` (configuration not stated) cannot be ordered by TGI: over 100 µM for the first, over 100 µM for the second.

Compared with `C=C1C(=O)OC2CC3(C)CCCC(C)C3=CC12` (configuration not stated), `CN1C(=O)C23CCCCC2CC1(c1ccccc1)S3` (configuration not stated) is higher in TGI: 28.9 µM for the first, over 100 µM for the second.

Compared with `CCCCCCCCCCCCCC(=O)OCC1OC(n2cc(F)c(=O)[nH]c2=O)C(N)C(OC(=O)CCCCCCCCCCCCC)C1O` (configuration not stated), `CCCCCCCCCCCCCCCC(=O)OC1C(O)C(CO)OC(OC)C1NC(=O)N(CCCl)N=O` (configuration not stated) is lower in TGI: over 100 µM for the first, 29.6 µM for the second.

`CC1=CC(C)(C)Nc2ccc(CSc3ccccc3)cc21` and `Cc1ccc(C)n1-n1c(-c2ccccc2)n[nH]c1=O` cannot be ordered by TGI: over 100 µM for the first, over 100 µM for the second.

`O=C(CCOS(=O)(=O)CF)N1CCN(C(=O)CCOS(=O)(=O)CF)CC1` and `CCCOC1OC(CS(=O)(=O)O)C(O)C(O)C1O` (configuration not stated) cannot be ordered by TGI: over 100 µM for the first, over 100 µM for the second.

Compared with `C[N+](C)([O-])Cc1cc(-c2ccccc2)ccc1O`, `CC(C)(C)NC/C(=C\c1ccccc1)C(=O)c1ccccc1` is lower in TGI: over 100 µM for the first, 22.6 µM for the second.

First: O=C(N/N=C(/COc1cccc(Cl)c1)N=Cc1cccnc1)c1ccncc1
Second: O=C(Nc1cccc(Cl)c1)c1cc(N=Nc2ccc([N+](=O)[O-])cc2Cl)ccc1O
The TGI of the first is higher: over 100 µM for the first, 8.63 µM for the second.

Compared with `CC(C)(C)c1ccc(O)c(CN(Cc2cc(C(C)(C)C)ccc2O)C2CCCCC2)c1`, `O=[As](O)(O)c1ccc2nc3cc([As](=O)(O)O)ccc3nc2c1` is higher in TGI: 43.4 µM for the first, over 100 µM for the second.

`CC1=C2[C@H](c3ccccc3)C3C=CC2(c2ccccc23)N(C(=O)C(c2ccccc2)c2ccccc2)C1=O` (some centres not stated) and `O=C1C2ON3c4ccccc4C(=O)C3(c3ccccc3)C2C(=O)N1c1ccccc1` (configuration not stated) cannot be ordered by TGI: over 100 µM for the first, over 100 µM for the second.

`COc1ccc(CNc2cnc3cc(N)cc(N)c3n2)cc1` and `COc1ccc(CNC(=O)[C@H](Cc2ccc(O)cn2)NC(C)=O)cc1` cannot be ordered by TGI: over 100 µM for the first, over 100 µM for the second.

Compared with `C=C1CC(CN2CCC(=O)NC2=O)(c2ccccc2)OC1=O` (configuration not stated), `O=C(Nn1cnn2c(=O)c3ccccc3nc2c1=O)c1ccccc1` is higher in TGI: 30 µM for the first, over 100 µM for the second.

Compared with `N#Cc1cc(NC(=O)c2ccccc2)c(=O)n2c1[nH]c1ccccc12`, `Cn1c2c3c(F)c(F)ccc3nc-2cc2ccccc21` is lower in TGI: over 100 µM for the first, 19.6 µM for the second.

`CCOc1c(C#N)c2c(N)ncnc2n1C1OC(CO)C(O)C1O` (configuration not stated) and `CCOC(=O)C1SC(=Nc2ccc(Cl)cc2C)N=C1C` (configuration not stated) cannot be ordered by TGI: over 59.5 µM for the first, 70.4 µM for the second.

First: CCN(CC)CCNc1ccc(C)c2sc3ccccc3c(=O)c12
Second: CCC(=O)NCCc1c2c3c(ccnc3c3ncsc13)-c1ccccc1N2
The TGI of the first is lower: 9.71 µM for the first, over 100 µM for the second.

`CC(=O)N/C(=C\c1ccc(/C=C(\NC(C)=O)C2=NC3C(=O)c4ccccc4C(=O)C3N2)cc1)C1=NC2C(=O)c3ccccc3C(=O)C2N1` (configuration not stated) and `O=S(=O)(Nc1ccc2ccccc2c1)c1ccc(-c2cnc(C3CC3)o2)cc1` cannot be ordered by TGI: over 100 µM for the first, over 100 µM for the second.

`COC(=O)c1c2c(cc3c1CC1(Cc4cc5c(cc4C1)CCC5)C3)CCC2` and `COC(=O)c1ccc2c(c1)c1c(C)c3ccncc3c(C)c1n2C` cannot be ordered by TGI: over 100 µM for the first, over 100 µM for the second.

`Cn1c(=O)oc2cc(Br)ccc21` and `NC(=O)C(Nc1ccc(Cl)cc1)c1cc2cc(Br)ccc2nc1Cl` (configuration not stated) cannot be ordered by TGI: over 100 µM for the first, over 50 µM for the second.

First: CC(C)CCC(=O)[C@@H](C)[C@H]1[C@@H](OC2OCC(O)C(O)C2NS(C)(=O)=O)C[C@H]2[C@@H]3CC=C4C[C@@H](O)CC[C@]4(C)[C@H]3CC[C@]12C (some centres not stated)
Second: COCOCC[C@@H]1CC=CC(NC(=O)OCc2ccccc2)C1/C=C/C(=O)CCC1OCCO1 (some centres not stated)
The TGI of the first is lower: 14.8 µM for the first, over 100 µM for the second.

First: CN1CCN(Cc2ccc(NC(=O)c3cncc(C#Cc4cnn5ccccc45)c3)cc2C(F)(F)F)CC1
Second: O=C(Nc1nc(C23CC4CC(CC(C4)C2)C3)cs1)c1cc2c(ccc3ccccc32)oc1=O
The TGI of the first is lower: 3.74 µM for the first, over 100 µM for the second.

`CN(C)CCCNC(=O)c1cc(NC(=O)c2cc(NC(=O)[C@@H]3C[C@H]3C(=O)Nc3cc(C(=O)Nc4cc(C(=O)NCCCN(C)C)n(C)c4)n(C)c3)cn2C)cn1C` and `COc1cc(CC(C(=O)O)C(=O)O)c(OC)cc1CC(C(=O)O)C(=O)O` cannot be ordered by TGI: over 100 µM for the first, over 100 µM for the second.

Going from `O=S(=O)(OI(O)CC(F)(F)F)C(F)(F)F` to `CCC[CH2][Sn]([CH2]CCC)([O]C(=O)c1cc(F)cc(F)c1)[O][Sn]([CH2]CCC)([CH2]CCC)[O]C(=O)c1cc(F)cc(F)c1`, the TGI falls from over 100 µM to 5.47 µM.

`CCCCCCCCCOC(=S)NCCCCC` and `COc1ccccc1NC(=S)Nc1cc(C)ccn1` cannot be ordered by TGI: over 100 µM for the first, over 100 µM for the second.

`NNC(=O)N/N=C1\C(=O)N(c2nccs2)C(=O)C(=O)C1c1nc2ccccc2s1` (configuration not stated) and `O=C(NNC(=S)NCc1ccccc1)C12CC3CC(CC(C3)C1)C2` cannot be ordered by TGI: over 100 µM for the first, over 100 µM for the second.

Work on `C=CCc1cccc(/C=N\N=C(/N)NO)c1O` yielded a TGI of over 100 µM.

`COc1ccc(/C=C\c2cc(OC)c(OC)c(OC)c2)c(O)c1O` was tested, and the TGI was 42.7 µM and 32.7 µM.
